{"source": "PubChem BioAssay AID1508623", "about": "(National Center for Advancing Translational Sciences (NCATS), 2021)", "note": "About 450 (0.94%) of roughly 48,000 compounds were called active. About 19% were inconclusive and are not listed. The call rests on the fitted dose curve; in most records, active means well fitted inhibition curve with a large enough effect; inconclusive means small, poorly fitted or top-dose-only effect; inactive means no such curve, though single readings can be large or run the other way. The list shows a part of the results.", "data": [{"experiment": "Primary qHTS for Identification of Small Molecule Inhibitors of Huntingtin Promoter Activity; further: nearly all actives have a fitted effect of over 50% in size", "details": "HEK293 HTT promoter firefly luciferase reporter (activity 0% = vehicle and -100% = no light), 24 h; series mostly up to 57.5 µM; activity change, negative = inhibition: at the top concentration", "summary_of_the_method": "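HEK293 cells carrying firefly luciferase reporters were seeded at 2,500 per well in Opti-MEM and cultured for 24 h. They were then treated with compounds at up to 57.5 uM final for 24 h at 37 degrees C before Dual-Glo luminescence readout.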", "values": [{"smiles": "CCOc1ccc(-c2nonc2NC(=O)COc2c(C)cc(C)cc2C)cc1OCC", "activity change, negative = inhibition": "inactive: -3.29%"}, {"smiles": "CCCCCn1c(C(C)NC(=O)c2ccccc2)nc2ccccc21", "note": "(configuration not stated)", "activity change, negative = inhibition": "inactive: -15.8%"}, {"smiles": "COc1ccc2c(c1)c1c(c(=O)n(Cc3ccccc3)c(=O)n1CC(=O)NCc1ccccc1Cl)n2C", "activity change, negative = inhibition": "inactive: -3.69%"}, {"smiles": "CCOc1cc(CNC(=O)C2COc3ccccc3C2)cc(OCC)c1OCC", "note": "(configuration not stated)", "activity change, negative = inhibition": "inactive: -22.8%"}, {"smiles": "COc1ccc(CNC(=O)CCn2cccn2)cc1", "activity change, negative = inhibition": "inactive: -6.81%"}, {"smiles": "COc1ccc(CCn2cc3c(c2-c2ccc(Br)cc2)c(=O)n(C)c(=O)n3C)cc1OC", "activity change, negative = inhibition": "inactive: -7.87%"}, {"smiles": "Cc1ccc(C(C)C)c(OCC(=O)NCC2(N(C)C)CCCCC2)c1", "activity change, negative = inhibition": "inactive: -20.6%"}, {"smiles": "Cc1ccccc1C(=O)n1nc(-c2ccco2)nc1NCc1ccc(Cl)cc1", "activity change, negative = inhibition": "inactive: 3.56%"}, {"smiles": "COc1ccc(OC(=O)N(CC(=O)O)Cc2ccc(OCCc3nc(-c4ccccc4)oc3C)cc2)cc1", "activity change, negative = inhibition": "inactive: -5.6%"}, {"smiles": "COc1ccc(-c2nc(C)c(CCNC(=O)C(=O)Nc3ccccc3OC)s2)cc1", "activity change, negative = inhibition": "inactive: -3.35%"}, {"smiles": "Cc1ccc(-c2nnc(SCc3ccccc3C)o2)cc1", "activity change, negative = inhibition": "inactive: 62.4%"}, {"smiles": "CCc1ccc(C(=O)c2cn(CC(=O)Nc3ccc4c(c3)OCO4)c3cc(OC)c(OC)cc3c2=O)cc1", "activity change, negative = inhibition": "inactive: -13.9%"}, {"smiles": "O=C(COc1ccc(Cl)cc1)Nc1ccc(-c2nc3ccccc3s2)c(O)c1", "activity change, negative = inhibition": "inactive: -23.8%"}, {"smiles": "COc1cc(-c2cc(OC)c3c(C)oc(C)c3c(=O)c2)ccc1OC(=O)c1ccccc1Cl", "activity change, negative = inhibition": "inactive: -16.1%"}, {"smiles": "COc1cc(Cl)c(NC(=O)CCS(=O)(=O)c2cc3c(cc2Cl)NC(=O)CO3)c(OC)c1", "activity change, negative = inhibition": "inactive: 20.6%"}, {"smiles": "Cc1cc(C)c2c(=O)cc(CSCC(=O)Nc3ccccc3Cl)[nH]c2c1", "activity change, negative = inhibition": "inactive: -2.52%"}, {"smiles": "Cc1ccc(-c2cc3ncc4c(n3n2)-c2cc(C)ccc2OC4)cc1", "activity change, negative = inhibition": "inactive: -13.1%"}, {"smiles": "Cc1cccc(Oc2nc3c(C)cccn3c(=O)c2/C=C(\\C#N)c2nc3ccccc3[nH]2)c1", "activity change, negative = inhibition": "inactive: -19.3%"}, {"smiles": "Cc1ccc2nc(N3CCN(c4cccc(Cl)c4)CC3)c(-n3nc(C)cc3C)nc2c1", "activity change, negative = inhibition": "inactive: -6.24%"}, {"smiles": "CCOC(=O)C1=C(CN2CCC(C)CC2)NC(=O)NC1c1ccc(F)cc1", "note": "(configuration not stated)", "activity change, negative = inhibition": "inactive: -5.57%"}, {"smiles": "Cc1ccc(N2C(=O)CSC23C(=O)N(CC(=O)NCc2ccccc2)c2ccccc23)cc1C", "note": "(configuration not stated)", "activity change, negative = inhibition": "inactive: -16.2%"}, {"smiles": "Cc1cccc(C)c1OCC(=O)NCC1(N(C)C)CCCCC1", "activity change, negative = inhibition": "inactive: -26.1%"}, {"smiles": "CNC(=O)c1c(NC(=O)c2ccc(S(=O)(=O)N3CCC(C)CC3)cc2)sc2c1CCC2", "activity change, negative = inhibition": "inactive: -0.907%"}, {"smiles": "COc1ccccc1CNC(=O)C1CCC(CNS(=O)(=O)c2ccc3c(c2)CCCC(=O)N3)CC1", "note": "(configuration not stated)", "activity change, negative = inhibition": "inactive: -15.6%"}, {"smiles": "COc1ccc(CNC(=O)c2ccc(N3CCCC3)c(NC(=O)NCc3ccc(F)cc3)c2)cc1", "activity change, negative = inhibition": "inactive: -28.4%"}, {"smiles": "CCN(CC)CCNC(=O)c1ccc(Cn2c(SCc3ccccc3)nc3cccnc32)cc1", "activity change, negative = inhibition": "inactive: 38.5%"}, {"smiles": "Cc1ccc2c(Sc3ccc(Cl)cc3)c(C(=O)N3CCC(C)CC3)[nH]c2c1", "activity change, negative = inhibition": "inactive: -27.6%"}, {"smiles": "COc1ccc(CNS(=O)(=O)c2cnc(N)nc2)c(OC)c1", "activity change, negative = inhibition": "inactive: 0.185%"}, {"smiles": "CS(=O)(=O)c1ccc(-c2nnc(NC(=O)c3ccc4c(c3)OCCO4)o2)cc1", "activity change, negative = inhibition": "inactive: -5.72%"}, {"smiles": "CCC1CN(C(=O)N2CCC(C(=O)NCCN(CC)CC)CC2)c2cc(C)ccc2O1", "note": "(configuration not stated)", "activity change, negative = inhibition": "inactive: 1.14%"}, {"smiles": "CC(C)Oc1ccc(CNC(=O)CCCN2C(=O)c3cccnc3Oc3ccc(Cl)cc32)cc1", "activity change, negative = inhibition": "inactive: -15.6%"}, {"smiles": "CCN(C(=O)c1cc2c(s1)-c1c(C)cccc1OC2)c1ccccc1F", "activity change, negative = inhibition": "inactive: -25.1%"}, {"smiles": "COc1ccc(CC(=O)N2CCc3cc(OC)c(OC)cc3C2COc2ccc(OC)cc2)cc1", "note": "(configuration not stated)", "activity change, negative = inhibition": "inactive: -29.7%"}, {"smiles": "CCOC(=O)c1scc(-c2ccccc2)c1S(=O)(=O)Nc1cc(OC)cc(OC)c1", "activity change, negative = inhibition": "inactive: -1.38%"}, {"smiles": "O=C(Cn1cc(SCc2c(F)cccc2Cl)c2ccccc21)N1CCCCCC1", "activity change, negative = inhibition": "inactive: 15.1%"}, {"smiles": "COc1ccc(-n2nc(C(=O)N(C)c3cc(C)ccc3C)c3c4ccccc4n(C)c3c2=O)cc1Cl", "activity change, negative = inhibition": "inactive: 31.3%"}, {"smiles": "COc1ccc(-c2c(-c3ccc(O)cc3O)n[nH]c2C)cc1", "activity change, negative = inhibition": "inactive: -28.2% [at 116 µM]"}, {"smiles": "Cc1c(Cl)cccc1NC(=O)c1cnc2sc(N3CCOCC3)nn2c1=O", "activity change, negative = inhibition": "inactive: -11.5%"}, {"smiles": "CCN(c1ccccc1)S(=O)(=O)c1ccc(NC(=O)c2cc(=O)c3cc(C)cc(C)c3o2)cc1", "activity change, negative = inhibition": "inactive: 4.48%"}, {"smiles": "CCC(=O)N1c2ccccc2CC1C(=O)NCCc1ccccc1C", "note": "(configuration not stated)", "activity change, negative = inhibition": "inactive: -24.2%"}, {"smiles": "O=C(CSc1cn(CC(=O)N2CCOCC2)c2ccccc12)Nc1ccccc1F", "activity change, negative = inhibition": "inactive: -4.33%"}, {"smiles": "O=C(Nc1ccc2nn(-c3ccccc3)nc2c1)c1cc2ccccc2o1", "activity change, negative = inhibition": "inactive: 10.9%"}, {"smiles": "COc1ccc(OC)c(CCNC(=O)CCCn2c(=O)c3cccn3c3ccccc32)c1", "activity change, negative = inhibition": "inactive: -3.99%"}, {"smiles": "Cc1cccc(C)c1OCC(C)N", "note": "(configuration not stated)", "activity change, negative = inhibition": "inactive: 10.4%"}, {"smiles": "O=C(c1ccc2c(c1)N(Cc1ccc(Cl)cc1)C(=O)c1ccccc1S2=O)N1CCOCC1", "note": "(configuration not stated)", "activity change, negative = inhibition": "inactive: -25%"}, {"smiles": "Cc1cc(C)c2c(CC(=O)N3CCN(c4cccc(Cl)c4)CC3)coc2c1", "activity change, negative = inhibition": "inactive: -13.5%"}, {"smiles": "CC1CCc2nc3ncn(Cc4ccccc4C#N)c(=O)c3cc2C1", "note": "(configuration not stated)", "activity change, negative = inhibition": "inactive: 9.94%"}, {"smiles": "COc1ccc(C(CNC(=O)c2oc3ccc(Cl)cc3c2C)N2CCCCC2)cc1", "note": "(configuration not stated)", "activity change, negative = inhibition": "inactive: -10.5%"}, {"smiles": "CCCC(=O)N(c1ccc2oc3c(c2c1)CCCC3)S(=O)(=O)c1cc(C)ccc1C", "activity change, negative = inhibition": "inactive: -12.4%"}, {"smiles": "O=C1CC(c2nc3ccccc3[nH]2)CN1c1cccc(Cl)c1", "note": "(configuration not stated)", "activity change, negative = inhibition": "inactive: -19.2%"}, {"smiles": "COc1cccc(CSc2nc3cc(C(=O)NC4CCCC4)ccc3c(=O)n2Cc2ccccc2)c1", "activity change, negative = inhibition": "inactive: 1.21%"}, {"smiles": "O=C(CSc1nc2ccccc2n1Cc1ccccc1)N1CCN(c2ccc(F)cc2)CC1", "activity change, negative = inhibition": "inactive: -27.8%"}, {"smiles": "COc1ccc(-n2cc(C(=O)NCc3ccccc3)c3ccccc3c2=O)cc1", "activity change, negative = inhibition": "inactive: -12.9%"}, {"smiles": "Cc1cc(Cl)ccc1NC(=O)c1cc(S(=O)(=O)N2CCOCC2)cn1C", "activity change, negative = inhibition": "inactive: -30.8%"}, {"smiles": "CSc1ccc(CCNC(=O)C2CCN(c3nc4ccccc4nc3C(F)(F)F)CC2)cc1", "activity change, negative = inhibition": "inactive: -9.01%"}, {"smiles": "O=C(Cn1c(=O)n(Cc2ccc3c(c2)OCO3)c(=O)c2oc3ccccc3c21)Nc1ccccc1", "activity change, negative = inhibition": "inactive: -10.7%"}, {"smiles": "Cc1ccccc1CNC(=O)C1CCN(c2nnc(C)c3c(C)n(-c4ccccc4)nc23)CC1", "activity change, negative = inhibition": "inactive: 4.85%"}, {"smiles": "CCc1ccc(-c2nc3ccc(Br)cc3c(C(=O)O)c2C)s1", "activity change, negative = inhibition": "inactive: -29.1%"}, {"smiles": "COC(=O)c1ccc(NC(=O)c2c(NCc3ccc(C)o3)sc3c2CCCC3)cc1", "activity change, negative = inhibition": "inactive: -29.9%"}, {"smiles": "CCc1nnc(NC(=O)c2cc(=O)c3cc(C)c(C)cc3o2)s1", "activity change, negative = inhibition": "inactive: -5.56%"}, {"smiles": "COc1cc(-c2noc(-c3cc4cc(F)ccc4oc3=O)n2)cc(OC)c1OC", "activity change, negative = inhibition": "inactive: 0.986%"}, {"smiles": "CN1C(=O)C2(c3ccccc31)N(c1ccccc1)C(=O)CS2(=O)=O", "note": "(configuration not stated)", "activity change, negative = inhibition": "inactive: -16.3%"}]}]}
